Data published in the supplement of paper PMC4166925.
± gives the standard deviation of the averaged measurements. Whole data set: some 33,000 sequences, median “E-score (dimensionless, -0.5 to 0.5)” near -0.046, cut for the highest 2% near 0.36. The list shows a part of the results.

system: T1, SpTbr T-box DNA-binding domain (GST fusion); assay: PBM E-score of 8-mer (E-score (dimensionless, -0.5 to 0.5)); Tbr is Tbrain of the sea star Patiria miniata (Pm) or the sea urchin Strongylocentrotus purpuratus (Sp); higher = stronger binding preference; most listed sequences are background and not binding sites; conditions: the construct has about 5 more residues each side
T1 sequence: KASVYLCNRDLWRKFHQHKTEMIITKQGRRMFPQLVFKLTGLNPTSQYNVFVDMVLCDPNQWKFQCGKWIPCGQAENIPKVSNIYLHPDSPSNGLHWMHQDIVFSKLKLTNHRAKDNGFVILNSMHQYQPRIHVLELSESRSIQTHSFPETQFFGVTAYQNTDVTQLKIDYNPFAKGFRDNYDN
Outline: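 Primer extension turned Universal Agilent oligonucleotide arrays double-stranded. They were incubated with 200 nM protein in PBS (pH 7.5); the protein was a GST-fused Tbr T-box DNA-binding domain expressed in BL21 E. coli at 20 °C and purified on glutathione. Every ungapped 8-mer was scored from the scanned, quantified probe intensities, and the Universal PBM Analysis Suite gave each an enrichment E-score averaged over duplicate arrays.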

Sequence | PBM E-score of 8-mer
GCTTTAGA | -0.0973 ± 0.021
AGGATATA | -0.067 ± 0.029
CCAGTGTA | -0.0905 ± 0.051
CAAGCAAA | -0.0951 ± 0.012
CCATCTGA | 0.00464 ± 0.024
TTCAAAAA | -0.241 ± 0.043
TAAGCTTA | -0.203 ± 0.0058
CACACATC | 0.4 ± 0.013
GTCGGACA | -0.171 ± 0.024
TGGAGACA | -0.0854 ± 0.0011
TCAGTTAA | -0.0462 ± 0.038
ACTGCATG | -0.118 ± 0.057
AACGCCGC | 0.113 ± 0.0063
CCCTATAG | -0.147 ± 0.04
GTAGTAAC | 0.0283 ± 0.036
CGTTTACC | -0.07813 ± 0.00062
GATCCAAC | -0.0248 ± 0.034
CTGAGCAG | -0.159 ± 0.0028
CTTACAAC | 0.0459 ± 0.067
AACTTCCT | -0.109 ± 0.014
CAGTAGAA | -0.0894 ± 0.0075
CGGGTGAC | 0.258 ± 0.051
GCGACGCC | 0.293 ± 0.023
AGAATATG | -0.0366 ± 0.062
GCCGTCAC | 0.291 ± 0.041

Sequence | PBM E-score of 8-mer
CTATTCTA | -0.092 ± 0.0036
CACAAGGA | -0.0844 ± 0.011
ACTGGGGG | -0.282 ± 0.075
AATTGCGG | -0.0334 ± 0.017
GTTCGAGA | -0.0843 ± 0.056
ATAAAGCC | -0.225 ± 0.016
CTTCATCA | 0.0213 ± 0.084
CGATAGGC | 0.0244 ± 0.11
GCGTGCGA | 0.317 ± 0.025
GGAGGAAA | -0.307 ± 0.026
GTGCTGCA | 0.00563 ± 0.034
CCCGGAGA | -0.111 ± 0.064
CGTGAAAA | 0.329 ± 0.069
GCTGACGA | 0.165 ± 0.034
ATCAGGGC | -0.146 ± 0.015
CAAGAATG | -0.237 ± 0.018
GATAACAC | 0.414 ± 0.022
AGGTATCC | -0.223 ± 0.042
ACATACAC | 0.0995 ± 0.068
AGGGACTA | -0.1367 ± 0.00023
ATGGTGAC | 0.2478 ± 0.0011
CAGAACTC | -0.14 ± 0.0083
AATGATGG | -0.116 ± 0.046
AATTCCCG | -0.145 ± 0.036
CACCGCAA | 0.00114 ± 0.00069

Sequence | PBM E-score of 8-mer
GCTCCTCC | -0.323 ± 0.025
AGACAAAA | -0.22 ± 0.016
ATGCTGGA | -0.245 ± 0.017
GCACTCGC | 0.242 ± 0.083
GCAGCGGA | -0.249 ± 0.033
AAGTGACA | 0.427 ± 0.013
GGTGTTAC | 0.4612 ± 0.0021
AACACGAC | 0.199 ± 0.024
AATCTCAA | -0.0835 ± 0.06
CCACCTCA | 0.172 ± 0.067
ACTTAGCA | 0.0642 ± 0.0081
GAGCTTCC | -0.129 ± 0.05
CCTCCGCA | -0.0325 ± 0.035
CATCCATA | -0.317 ± 0.0032
CACAGGAA | -0.171 ± 0.023
ACAATCGG | 0.0458 ± 0.055
GCATTGAC | -0.0995 ± 0.018
GCTAGCAC | 0.2678 ± 0.0018
TACCCATA | -0.226 ± 0.01
AGATAGCC | -0.215 ± 0.025
CGCAGACC | -0.171 ± 0.094
ATCTTCTG | -0.297 ± 0.0093
CCCGACGC | 0.095 ± 0.062
AGTAACGG | 0.0168 ± 0.06
GGGATCAC | -0.0302 ± 0.016

Sequence | PBM E-score of 8-mer
CGGCCCTC | -0.119 ± 0.093
CCGATAGC | 0.146 ± 0.036
AGGAGTAT | -0.223 ± 0.0026
AACATGGA | -0.0817 ± 0.015
GGGATAGA | -0.105 ± 0.048
GATGTGCC | 0.109 ± 0.0022
GACCTGGC | -0.0497 ± 0.02
AAGAAGAC | -0.26 ± 0.033
CAGAATTC | -0.221 ± 0.0065
AACCCACA | 0.255 ± 0.0092
CCCGATCA | -0.0783 ± 0.071
CACAGTGG | 0.10376 ± 5.7e-05
GGACCGAC | -0.266 ± 0.043
ACGACTTC | -0.0729 ± 0.027
GGCGTACA | -0.194 ± 0.09
ATATTCAC | 0.32 ± 0.028
CCACGTCC | -0.0592 ± 0.004
CACTTATC | 0.2997 ± 0.0029
CTGGGCAA | -0.0664 ± 0.0081
CAATTTAA | -0.105 ± 0.045
ACTGGTAG | 0.044 ± 0.013
CAAGGGGC | -0.144 ± 0.015
AAGACGCG | -0.0698 ± 0.056
ACATCCGA | -0.0634 ± 0.053
TAATGACA | 0.16 ± 0.017

Sequence | PBM E-score of 8-mer
ACACAATG | 0.145 ± 0.029
CGGTTCTC | 0.112 ± 0.029
CCGCTACG | -0.226 ± 0.0084
GAGGCACC | -0.0756 ± 0.035
ACCTGTTG | 0.293 ± 0.0091
CGTGTTGC | 0.228 ± 0.0076
CGATCGCG | 0.297 ± 0.063
AGTAACTG | 0.0261 ± 0.035
ACGGACAA | -0.0712 ± 0.016
AGCAAACT | 0.0268 ± 0.0054
AAAATAGC | 0.141 ± 0.0033
ACTTTTTC | 0.0987 ± 0.0086
CAGCCTCA | -0.103 ± 0.12
GACCTTAC | -0.286 ± 0.0076
CGTGAATA | 0.316 ± 0.024
CCCTATAC | -0.295 ± 0.038
CCCGGTGC | -0.114 ± 0.013
ATTGGCGG | 0.0161 ± 0.057
ACCCCAAG | 0.0279 ± 0.13
ATCGGACA | 0.0309 ± 0.026
CGGAAGCA | -0.189 ± 0.015
CGGATTAG | -0.185 ± 0.026
GCGGCTGA | 0.0162 ± 0.094
TCCGCAAA | -0.0601 ± 0.0079
AACGTCCA | -0.241 ± 0.014

Sequence | PBM E-score of 8-mer
AAGATCTA | 0.0306 ± 0.046
CGGCGGTA | -0.1368 ± 0.00034
GGGAAGGA | -0.248 ± 0.03
GTTATAGA | -0.0442 ± 0.027
AAAAAATG | -0.186 ± 0.059
CCAACGGC | -0.0264 ± 0.036
ATCTAACA | 0.175 ± 0.06
ATGGAGCG | -0.0677 ± 0.051
TAGTTCAA | -0.0579 ± 0.0051
CCTATACG | 0.00809 ± 0.051
AGTGGTCG | -0.0278 ± 0.03
GGAGTCCC | -0.0741 ± 0.049
AACTCACG | 0.00507 ± 0.019
TAGTGAGA | 0.209 ± 0.089
GGGGCCGA | -0.0294 ± 0.038
CTGTGGCA | 0.102 ± 0.048
TAGATCCA | -0.288 ± 0.061
AAGGTACT | -0.159 ± 0.089
ACTATCAC | 0.292 ± 0.044
CGTGATTC | 0.0347 ± 0.022
ACGGGGGC | 0.00886 ± 0.057
TCGCCACA | 0.321 ± 0.039
CATAGTAA | -0.171 ± 0.074
CCTTTGAA | -0.249 ± 0.025
ACTCCCCT | -0.165 ± 0.004

Sequence | PBM E-score of 8-mer
CGCCACAA | 0.0762 ± 0.081
CAAAGTGC | 0.226 ± 0.079
GATCCTAC | -0.206 ± 0.064
ATCTCTGG | -0.165 ± 0.098
CGCTGGTC | 0.0997 ± 0.051
AGGTGTAA | 0.475 ± 0.011
TGGTGACA | 0.39 ± 0.0062
CCAGACAG | -0.133 ± 0.039
ATCGCGAT | 0.364 ± 0.011
ATCTGGCG | 0.0377 ± 0.0091
ACTCGTAA | 0.0173 ± 0.02
CCTGTTAG | 0.221 ± 0.036
GAGGCGGA | -0.00262 ± 0.017
CCAACAGC | 0.165 ± 0.027
AAGTACCC | -0.202 ± 0.061
CATATATC | -0.251 ± 0.017
GCCCACGA | -0.00758 ± 0.07
AATACCCG | -0.0699 ± 0.03
CTGGCAAA | -0.138 ± 0.027
ATCTTCGA | -0.126 ± 0.014
GTGCGATA | 0.427 ± 0.0042
ACTATGTA | 0.093 ± 0.031
